About 10 (0.005%) of roughly 220,000 compounds were called active. The inconclusive results got no clear call from the source; some entries with a clear call stand among them for comparison. Rule as the data show it: active = maximum fold increase above about 1.5; inconclusive = no clear call, values can overlap the other calls; inactive = below that; tested in PC3 cells.
test: compounds boosting herpes simplex virus growth – fold increase, host cell viability (AID 1956); conditions: HSV replication augmentation in cells; at 25 µM unless noted

| Structure (SMILES) | maximum fold increase |
| --- | --- |
| O=C(CCc1ccccc1)NC(NC(=S)Nc1ccc(Cl)cc1)C(Cl)(Cl)Cl (configuration not stated) | inconclusive |
| O=C(Nc1ccc(F)cc1)C(Cc1ccccc1)n1cccc1 (configuration not stated) | inconclusive |
| COc1cc(/C=C2/SC(=S)N(CC(=O)O)C2=O)ccc1OC(=O)c1cccs1 | inconclusive |
| CCN1CCN(Cc2c(O)ccc3c2O/C(=C\C=C\c2ccccc2)C3=O)CC1 | inconclusive |
| O=C(Nc1ccncc1)c1ccccc1[N+](=O)[O-] | inconclusive |
| CC(C)C(=O)NC(c1ccco1)c1ccc2cccnc2c1O (configuration not stated) | inconclusive |
| Cc1ccc(-c2n[nH]c(=S)n2/N=C/C=C/c2ccccc2[N+](=O)[O-])cc1 | inconclusive |
| C=CCNC(=O)/C(C#N)=C\c1cc(Cl)c(O)c(OCC)c1 | inconclusive |
| O=C(Nc1nc2c(cc3c4c(cccc42)CC3)s1)c1ccccc1Cl | inconclusive |
| Cc1c(C(=O)N2c3ccccc3Sc3ccccc32)cccc1[N+](=O)[O-] | inconclusive |
| O=C(c1ccccc1)C(Cn1cncn1)C(Sc1ccccc1)c1ccccc1 (configuration not stated) | inconclusive |
| Cc1ccccc1CNS(=O)(=O)c1ccc2c(c1)OCCO2 | inconclusive |
| CC(C)(C)C1=NN(c2ccc([N+](=O)[O-])cc2)C(c2ccccc2)C1 (configuration not stated) | inconclusive |
| CC(C)OC(=O)CSc1nnc2c(n1)[nH]c1ccc(F)cc12 | inactive |
| CC1=NN(c2ccc(F)cc2)C(=O)C1C(c1cccc(O)c1)c1c(C)[nH]n(-c2ccc(F)cc2)c1=O (configuration not stated) | inactive |
| S=C1NCCOCCNC(=S)NCCOCCOCCOCCN1 | inactive |
| CN(CCC#N)c1ccc(/C=C(\C#N)c2ccccn2)cc1 | inconclusive |
| O=C(O)c1ccccc1-c1ccccc1C(=O)Nc1ccc2c(c1)[nH]c(=O)c1ccccc12 | inactive |
| Cc1cc2nc3c(=O)n(CCc4ccccc4)c(=O)[nH]c3nc2cc1N | inconclusive |
| Cn1c(=O)n(-c2ccc(Cl)cc2)c(=O)c2c3c(sc21)COC(C)(C)C3 | inactive |
| O=C(O)c1cc(Cl)ccc1-c1ccc(/C=C/c2cc(C(F)(F)F)[nH]c(=O)n2)o1 | inconclusive |
| O=C(NCCCn1ccnc1)c1cc(-c2ccc(Cl)cc2)nc2ccccc12 | inactive |
| Cc1cccc(C(=O)NNC(=O)CCn2nnc3ccccc32)c1 | inactive |
| CC1CCCN(c2c([N+](=O)[O-])c(=O)oc3ccccc23)C1 (configuration not stated) | inconclusive |
| Cc1cc2nc3c(=O)n(Cc4ccccc4)c(=O)[nH]c3nc2cc1N | inconclusive |
| O=C(Nc1ccc2[nH]ccc2c1)c1cccs1 | inactive |
| CCOC(=O)C1=C(O)/C(=C/c2cc(OC)c(O)c(OC)c2)SC1=Nc1ccc(OC)cc1 | inconclusive |

— PubChem BioAssay AID1956 (SRMLSC, 2009)
